# Test results published in the supplement of paper PMC10369915.
# The list shows a part of the results. No stated cut-off is given here; in the data, active = 3.2 or more and inactive = the rest. Most of these values are background signal.
# Target: SHP2 C-SH2 domain E139D
# Test: enrichment score (SH2-bound / input frequency) (ratio); bacterial display of known human phosphotyrosine sites (pTyr-Var adds point mutants) read by sequencing; higher = stronger binding; tyrosines were phosphorylated by kinases first
# Details: peptide library: pTyr-Var
# 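Further: displayed peptides selected on beads carrying the immobilized SH2 domain, with library peptides lacking any tyrosine serving as negative controls.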
row,Binder,enrichment score
1,RLGLQYSQGLV [EIF2B4_Y214],inactive: 1.18
2,IHRWVYPLTPE [EIF2B5_Y319_R315H],inactive: 2.64
3,INSLKYAFNVS [EIF2B5_Y583_I587V_YF],inactive: 1.33
4,ERDYTYEELLN [EIF2S2_Y176],inactive: 0.741
5,ERDFTYEELLN [EIF2S2_Y176_YF],inactive: 0.573
6,FNVLQYVVPKV [EIF3A_Y382_E386K],inactive: 1.48
7,VNNAVYGIDAM [EIF3J_Y143],inactive: 0.825
8,KGVDRYNPENL [EIF3K_Y21_I18V],inactive: 0.55
9,ETGEPYRLSPE [EIF4G1_Y311],inactive: 0.478

# Target: SHP2 C-SH2 domain wild-type
# Test: as above
# Details: peptide library: pTyr-Var
row,Binder,enrichment score
1,RLGLQYSQGLV [EIF2B4_Y214],inactive: 1.19
2,IHRWVYPLTPE [EIF2B5_Y319_R315H],inactive: 2.18
3,INSLKYAFNVS [EIF2B5_Y583_I587V_YF],inactive: 0.825
4,ERDYTYEELLN [EIF2S2_Y176],inactive: 0.652
5,ERDFTYEELLN [EIF2S2_Y176_YF],inactive: 0.52
6,FNVLQYVVPKV [EIF3A_Y382_E386K],inactive: 1.92
7,VNNAVYGIDAM [EIF3J_Y143],inactive: 0.697
8,KGVDRYNPENL [EIF3K_Y21_I18V],inactive: 0.579
9,ETGEPYRLSPE [EIF4G1_Y311],inactive: 0.568

# Target: SHP2 N-SH2 domain L43F
# Test: as above
# Details: peptide library: pTyr-Var
row,Binder,enrichment score
1,RLGLQYSQGLV [EIF2B4_Y214],inactive: 1.26
2,IHRWVYPLTPE [EIF2B5_Y319_R315H],inactive: 2.66
3,INSLKYAFNVS [EIF2B5_Y583_I587V_YF],inactive: 1.02
4,ERDYTYEELLN [EIF2S2_Y176],inactive: 0.668
5,ERDFTYEELLN [EIF2S2_Y176_YF],inactive: 0.426
6,FNVLQYVVPKV [EIF3A_Y382_E386K],active: 5.07
7,VNNAVYGIDAM [EIF3J_Y143],inactive: 0.76
8,KGVDRYNPENL [EIF3K_Y21_I18V],inactive: 0.466
9,ETGEPYRLSPE [EIF4G1_Y311],inactive: 0.608

# Target: SHP2 N-SH2 domain T42A
# Test: as above
# Details: peptide library: pTyr-Var
row,Binder,enrichment score
1,RLGLQYSQGLV [EIF2B4_Y214],inactive: 1.1
2,IHRWVYPLTPE [EIF2B5_Y319_R315H],inactive: 2.31
3,INSLKYAFNVS [EIF2B5_Y583_I587V_YF],inactive: 1.5
4,ERDYTYEELLN [EIF2S2_Y176],inactive: 0.627
5,ERDFTYEELLN [EIF2S2_Y176_YF],inactive: 0.556
6,FNVLQYVVPKV [EIF3A_Y382_E386K],active: 6.07
7,VNNAVYGIDAM [EIF3J_Y143],inactive: 0.591
8,KGVDRYNPENL [EIF3K_Y21_I18V],inactive: 0.476
9,ETGEPYRLSPE [EIF4G1_Y311],inactive: 0.428

# Target: SHP2 N-SH2 domain T52S
# Test: as above
# Details: peptide library: pTyr-Var
row,Binder,enrichment score
1,RLGLQYSQGLV [EIF2B4_Y214],inactive: 0.99
2,IHRWVYPLTPE [EIF2B5_Y319_R315H],inactive: 2.25
3,INSLKYAFNVS [EIF2B5_Y583_I587V_YF],inactive: 1.45
4,ERDYTYEELLN [EIF2S2_Y176],inactive: 0.693
5,ERDFTYEELLN [EIF2S2_Y176_YF],inactive: 0.559
6,FNVLQYVVPKV [EIF3A_Y382_E386K],active: 7
7,VNNAVYGIDAM [EIF3J_Y143],inactive: 0.779
8,KGVDRYNPENL [EIF3K_Y21_I18V],inactive: 0.402
9,ETGEPYRLSPE [EIF4G1_Y311],inactive: 0.47

# Target: SHP2 N-SH2 domain wild-type
# Test: as above
# Details: peptide library: pTyr-Var
row,Binder,enrichment score
1,RLGLQYSQGLV [EIF2B4_Y214],inactive: 0.962
2,IHRWVYPLTPE [EIF2B5_Y319_R315H],inactive: 2.22
3,INSLKYAFNVS [EIF2B5_Y583_I587V_YF],inactive: 0.731
4,ERDYTYEELLN [EIF2S2_Y176],inactive: 0.861
5,ERDFTYEELLN [EIF2S2_Y176_YF],inactive: 0.546
6,FNVLQYVVPKV [EIF3A_Y382_E386K],inactive: 2.12
7,VNNAVYGIDAM [EIF3J_Y143],inactive: 0.702
8,KGVDRYNPENL [EIF3K_Y21_I18V],inactive: 0.736
9,ETGEPYRLSPE [EIF4G1_Y311],inactive: 0.685
